Test results taken from PubChem BioAssay AID488969 (Vanderbilt High Throughput Screening Facility, 2010).
Whole data set: some 110,000 compounds, median “z-score” near -0.1, cut for the highest 2% near 2. This is one part of the list. Calls of active or inactive are those of the source.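 How the source made its calls: active means z-score in the third read window above 3 or below -3; inactive means the rest.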

Molecular target: Metabotropic glutamate receptor 8 (Rattus norvegicus) (UniProt P70579)
UniProt P70579, sequence (P70579 whole entry, looked up): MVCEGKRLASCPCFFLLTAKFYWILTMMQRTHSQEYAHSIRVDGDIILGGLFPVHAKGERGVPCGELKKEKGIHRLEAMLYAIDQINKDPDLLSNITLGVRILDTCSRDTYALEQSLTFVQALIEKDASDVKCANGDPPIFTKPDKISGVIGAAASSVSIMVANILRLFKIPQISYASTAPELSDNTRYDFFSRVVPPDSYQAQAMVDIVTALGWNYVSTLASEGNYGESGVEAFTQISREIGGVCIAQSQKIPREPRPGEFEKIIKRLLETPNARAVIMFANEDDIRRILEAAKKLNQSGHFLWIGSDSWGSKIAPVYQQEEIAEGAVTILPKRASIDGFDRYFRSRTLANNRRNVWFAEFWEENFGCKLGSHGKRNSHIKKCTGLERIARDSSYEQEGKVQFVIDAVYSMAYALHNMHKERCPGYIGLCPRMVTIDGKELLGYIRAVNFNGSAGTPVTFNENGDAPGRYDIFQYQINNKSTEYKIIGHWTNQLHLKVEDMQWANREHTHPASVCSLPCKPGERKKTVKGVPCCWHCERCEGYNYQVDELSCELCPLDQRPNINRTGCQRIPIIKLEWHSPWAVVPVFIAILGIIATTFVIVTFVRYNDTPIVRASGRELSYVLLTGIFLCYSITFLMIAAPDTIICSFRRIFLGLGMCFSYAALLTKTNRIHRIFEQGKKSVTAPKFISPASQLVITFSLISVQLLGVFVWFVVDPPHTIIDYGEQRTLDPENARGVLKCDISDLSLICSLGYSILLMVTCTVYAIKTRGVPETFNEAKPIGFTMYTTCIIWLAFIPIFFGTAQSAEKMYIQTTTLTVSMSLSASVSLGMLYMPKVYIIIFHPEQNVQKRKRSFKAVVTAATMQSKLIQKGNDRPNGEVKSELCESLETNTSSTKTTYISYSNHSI
Assay: rat mGluR8 modulators via GIRK flux, primary screen, cell-based, thallium flux, HTS (AID 488969)
Settings: HEK293 rat mGluR8, GIRK (G protein-gated inwardly rectifying potassium channel) thallium flux, FluoZin2; at 10 µM; stronger effect = higher value; submaximal glutamate (EC20) added with thallium

In order of rising z-score:
1. COC(=O)c1ccc2c(c1)C(C)(C)C(/C=C/c1ccc(O)cc1)=[N+]2C  -2.19
2. N#Cc1c(Nc2ccccc2)c(/C=N/N=C/c2ccccc2)c[nH]c1=O  -1.36
3. O=C(Nc1ccc2oc(=O)ccc2c1)c1cc2ccccc2o1  -1.25
4. COc1ccc(N=Cc2cc3c(cc2O)OC(N)=C(C#N)C3c2ccccc2)cc1 (stereo not drawn)  -1.18
5. CCOC(=O)N1CCN(c2c(NCCc3ccc(OC)c(OC)c3)c(=O)c2=O)CC1  -0.98
6. CCOC(=O)N1CCN(C(=O)CN2C(=O)COc3ccc(C)cc32)CC1  -0.865
7. O=C(c1cccs1)N1CCCC(c2nc(-c3ccc(F)cc3)no2)C1 (stereo not drawn)  -0.859
8. CCn1cc(C(=O)Nc2ccc(OC)c(OC)c2)c2cc(OC)c(OC)cc2c1=O  -0.788
9. O=C(CCc1nc(-c2ccccc2F)no1)NCCc1ccccc1Cl  -0.748
10. COc1ccc(C(=O)Nc2cc(-c3nn4c(C)nnc4s3)ccc2C)cc1  -0.731
11. Cc1ccc(Cn2nnc3c(=O)[nH]c(C4CCN(C(=O)c5cccs5)CC4)nc32)cc1  -0.73
12. Cn1c(=O)oc2cc(S(=O)(=O)N3CCCC(C(=O)NCc4cccs4)C3)ccc21 (stereo not drawn)  -0.657
13. O=C(OCC(=O)N1CCCCC1)c1cc(NS(=O)(=O)c2ccc(Cl)c([N+](=O)[O-])c2)ccc1O  -0.652
14. CN=c1scc(C)n1/N=C/c1ccc(O)c(O)c1O  -0.648
15. CCn1c(CNC(=O)C(C)(C)C)nc2ccccc21  -0.608
16. COc1cc2c(cc1OC)CN(CC(=O)Nc1cccc(C)c1)CC2  -0.581
17. CCCCn1c(SCc2ccccn2)nc2c1c(=O)n(C)c(=O)n2C  -0.565
18. COc1ccc(C(=O)CSc2nnc(CN3CCCC3)n2-c2ccc(F)cc2)c(OC)c1  -0.542
19. Cc1ccc(C2C(C#N)=C(N)Oc3cc4c(cc32)OCO4)cc1 (stereo not drawn)  -0.525
20. CC1Cc2nc(SCC(=O)Nc3ccc(F)cc3F)n(C)c(=O)c2S1 (stereo not drawn)  -0.504
21. CC(=O)Nc1cccc(NC(=O)CSc2nnc(Cc3cccn3C)n2CCc2ccccc2)c1  -0.499
22. Cc1ccc(C(=O)CC2(O)C(=O)N(Cc3ccccc3)c3ccccc32)o1 (stereo not drawn)  -0.497
23. CNC(=O)NC(=O)CSc1nc2ccccc2n1CCOC  -0.465
24. Cc1nn(-c2nc(-c3ccco3)cc(C(F)(F)F)n2)c(C)c1Cl  -0.448
25. COc1ccc(Cn2c(/C=C/c3ccccc3)nc3ccccc32)cc1  -0.424
26. CC(c1cccs1)N(C(=O)Nc1ccccc1)C1CCCCC1 (stereo not drawn)  -0.424
27. CC(C)C1N(S(=O)(=O)c2ccccc2)CCN1S(=O)(=O)c1ccccc1  -0.413
28. Cc1ccc(C)c(C(=O)COC(=O)c2cc(Cl)nc3ccccc23)c1  -0.403
29. Cc1cccc(NC(=S)NCCCN2CCOCC2)c1  -0.387
30. CSc1ccccc1NC(=O)CSCc1ccc(C)cc1  -0.385
31. CC(C)CCNC(=O)Cc1ccccc1[N+](=O)[O-]  -0.383
32. COc1ccc(C(=O)N2CCC(C(=O)NCc3ccccn3)CC2)cc1  -0.377
33. Cc1ccc(C(C)C)c(OC(=O)/C=C/c2ccccc2)c1  -0.343
34. CCCCN(C)C(=O)c1cn(CC)c2ccc(S(=O)(=O)N(C)C)cc2c1=O  -0.332
35. O=C(CSc1nnc(CNC(=O)C23CC4CC(CC(C4)C2)C3)n1-c1ccc(F)cc1)Nc1ccc(F)cc1  -0.327
36. CN(C)S(=O)(=O)c1ccc(N2CCCC2)c(C(=O)NCc2ccc(Cl)cc2)c1  -0.327
37. COc1ccc(CNS(=O)(=O)c2ccc3oc(C(=O)O)c(C)c3c2)cc1  -0.327
38. COc1cc(O)c2c(c1)COC2=O  -0.316
39. O=C1NC(=Nc2ccc(Cl)cc2)SC1Cc1cccc(Cl)c1Cl (stereo not drawn)  -0.307
40. O=C1CC(N2CCOCC2)C(=O)N1c1cccc(Cl)c1 (stereo not drawn)  -0.302
41. Oc1ccc(-c2onc(C(F)(F)F)c2-c2cscn2)c(O)c1  -0.293
42. COc1ccc(S(=O)(=O)N(CCCN2CCOCC2)Cc2cccc(OC)c2OC)cc1  -0.262
43. CC(=O)C1=C(O)C(=O)N(CCC(=O)O)C1c1ccc(Cl)cc1Cl (stereo not drawn)  -0.223
44. CCCN(CC(=O)Nc1ccc(F)c(F)c1F)CC(=O)Nc1c(Cl)cccc1Cl  -0.221
45. CCOC(=O)C1=C(C)C(c2ccccc2O)NC(=O)N1 (stereo not drawn)  -0.217
46. Cc1cc(/C=C(\C#N)C(=O)NC2CCCCCC2)c(C)n1C  -0.213
47. C=CCN1CCN(c2ccncc2S(=O)(=O)N2CCOCC2)CC1  -0.213
48. O=S(=O)([N-]c1nc2ccccc2nc1-[n+]1ccccc1)c1ccc(Cl)cc1  -0.212
49. O=c1c2c(ncn1CCO)nc1n2CCC1  -0.204
50. COc1cccc(CN(CC2CCCO2)S(=O)(=O)c2ccc(S(=O)(=O)N(C)C)cc2)c1 (stereo not drawn)  -0.195
51. Cn1nnnc1SCC(=O)NCCc1ccc(Cl)cc1  -0.189
52. CN(C)c1ccc(C=Nc2ccccc2)cc1  -0.186
53. COc1ccc(CCNC(=O)CSCc2ccc(C)cc2)cc1OC  -0.18
54. O=C(NCc1ccc2c(c1)OCO2)c1ccc(CSCc2ccccc2Cl)o1  -0.177
55. COc1ccccc1NC(=O)C(CC=C(Cl)Cl)C(C)=O (stereo not drawn)  -0.167
56. CCN(C(C)=O)N(CC)c1nc(Cl)nc(NC(C)C)n1  -0.158
57. COc1cc(CCC(=O)N2CCN(c3ccc(N4CCOCC4)nn3)CC2)cc(OC)c1OC  -0.154
58. CCc1ccccc1NC(=O)c1cc2sccc2n1C  -0.142
59. COCC(C)NS(=O)(=O)c1ccc(C)cc1 (stereo not drawn)  -0.139
60. O=C(Cc1cccs1)NNC(=O)c1ccc(F)cc1  -0.132
61. COC(=O)C1CCN(C(=O)Cc2ccc(Br)cc2)CC1  -0.128
62. COc1ccc(NC(=O)/C(C#N)=C\c2cc(C)n(-c3ccc4c(c3)OCO4)c2C)cc1  -0.128
63. CCN(CCCNC(=O)CN(C)S(=O)(=O)c1cccc2nsnc12)c1ccccc1  -0.112
64. S=C(Nc1cccc2ccccc12)N1CCN(c2ncccn2)CC1  -0.1
65. O=C(N/C(=C/c1ccco1)C(=O)N1CCCCCC1)c1cccs1  -0.0982
66. O=C(Nc1ccc(Cn2cccn2)cc1)c1ccc(COc2ccccc2Br)cc1  -0.0941
67. CC(=O)c1ccc(N2CCN(C(=O)COc3ccccc3F)CC2)c(F)c1  -0.0743
68. CCOC(=O)C1=C(C(F)(F)F)Nc2ncnn2C1c1cc(OC)ccc1OC (stereo not drawn)  -0.073
69. Cc1cccc(NC(=O)c2ccccc2OCC(=O)N2CCOCC2)c1C  -0.0706
70. C=CCc1cccc(/C=N/n2c(C)nnc2C)c1O  -0.0696
71. CCOc1ccc2c(c1)c(N=Nc1cccc(C(=O)O)c1)c(O)n2C  -0.0674
72. Cc1ccc(S(=O)(=O)Nc2ccncc2)c(C)c1N(C)S(=O)(=O)c1ccc(Cl)cc1  -0.067
73. NC(=O)CCCc1nc(-c2ccccc2Cl)no1  -0.0666
74. Cc1cccc(OCCC(=O)OCC(=O)N2CCc3ccccc32)c1  -0.0598
75. COc1cnc(-c2ccccc2)nc1Oc1cccc(C)c1  -0.0595
76. O=C(Nc1ccccc1)c1cccc(C(F)(F)F)c1  -0.053
77. CC(/C=N/NC(=O)c1cc(-c2ccccc2)nc2ccccc12)=C\c1ccco1  -0.0414
78. O=c1/c(=C\c2cccnc2)sc2nc3ccccc3n12  -0.0361
79. Cn1c(SCC(=O)NCC2CCCO2)nc2c([nH]c3ccccc32)c1=O (stereo not drawn)  -0.0356
80. c1ccc(CSc2nnc(-c3ccccn3)n2-c2ccccc2)cc1  -0.0352
81. O=S(=O)(c1ccc(N2CCN(CCO)CC2)nc1)N1CCCCC1  -0.0126
82. Cc1ccccc1C(=O)NC(NCC1CCCO1)C(Cl)(Cl)Cl (stereo not drawn)  -0.000655
83. O=C(O)Cn1c(SCc2ccccc2)nc2ccccc21  0.00596
84. C=CCn1c(CNc2ccc(C)cc2)nnc1SCC(=O)N/N=C/c1ccc(O)cc1O  0.0124
85. COc1ccc(NC(=O)CCSc2ccc(C)cc2)cc1S(=O)(=O)Nc1ccccc1Cl  0.0201
86. CCOC(=O)N1CCN(CC(=O)Nc2cccc(Br)c2)CC1  0.0335
87. COc1cc(O)c(NC(C)=O)c2nonc12  0.0415
88. C=CCSc1nnc(-c2nnc(SCC=C)n2CC)n1CC  0.0792
89. CCOC(=O)Cn1cc(C(=O)OC)c2ccccc21  0.0798
90. O=C1/C(=C\Nc2ccccc2)CCN1c1ncccn1  0.103
91. COc1ccc(C2NC(=O)NC(O)(C(F)(F)F)C2C(=O)c2ccc(F)cc2)cc1 (stereo not drawn)  0.124
92. CC(C)Oc1ccc(NC(=O)c2ccncc2)cc1  0.155
93. Cc1cc(N/C=C\C(=O)c2ccc(Cl)c(Cl)c2)no1  0.18
94. C=CCn1c(SCc2c(C)noc2C)nc2ccccc2c1=O  0.19
95. COc1ccc(C(OC(=O)c2ccco2)C(=O)NC2CCCCC2)cc1 (stereo not drawn)  0.293
96. Cc1csc(SCCN2C(=O)c3ccccc3C2=O)n1  0.307
97. COc1ccc(-n2ncc(S(=O)(=O)c3ccccc3)c2-c2ccc(Cl)cc2)cc1  0.351
98. COC(=O)[C@H](C)NC(=O)Nc1ccc(OC)c(OC)c1  0.367
99. CC(C)NC(=O)c1ccccc1N(Cc1ccccc1)S(C)(=O)=O  0.373
100. CC(=O)NC(O)C(=O)c1ccccc1 (stereo not drawn)  0.403
101. COC(=O)c1ccc(Cl)c(NC(C)=O)c1  0.411
102. O=C(Nc1ccc(F)cc1F)c1cc2ncc(Br)cn2n1  0.429
103. CCOC(=O)c1c(C)[nH]c(C(=O)COC(=O)CCC2CCCC2)c1C  0.436
104. CC(=O)Nc1nc(=S)ss1  0.468
105. COC(=O)NC(NC(=S)Nc1ccc([N+](=O)[O-])cc1)C(Cl)(Cl)Cl (stereo not drawn)  0.482
106. O=S(=O)(NCCc1ccccc1)c1cccc(S(=O)(=O)N2CCOCC2)c1  0.51
107. COc1ccc(/C=N/O)cc1COc1ccc(NC(C)=O)cc1  0.551
108. Cc1ccc(-n2c(=S)[nH]c3c(oc4ccccc43)c2=O)cc1  0.618
109. CC1(C)C2CCC1(C)C(NC(=O)CCN1CCCCC1)C2 (stereo not drawn)  0.731
110. O=C(Cc1c[nH]c2ccccc12)NNC(=O)c1ccccc1  0.804
111. CCO/C(C)=C1\C(=O)Nc2ccccc21  0.866
112. CC(=O)N1CCN(S(=O)(=O)c2ccc(S(=O)(=O)NC3CC3)cc2)CC1  2.05

In the case of `Cc1ccc(C(=O)NC(=S)Nc2ccccc2C(F)(F)F)cc1`, the z-score is reported as active: 6.32.
